In PubChem BioAssay AID1159614 (National Center for Advancing Translational Sciences (NCATS), 2016):
Out of some 45,000 compounds screened, about 65 (0.1%) were called active. The call rests on the fitted dose curve; in most records, active means well fitted activation curve with a large enough effect; inconclusive means small, poorly fitted or top-dose-only effect; inactive means no such curve, though single readings can be large or run the other way. This is one part of the list.

target: Galactocerebrosidase (Homo sapiens) (UniProt P54803); assay: A Novel Cell-Based Assay to Identify Small Molecules for B -Galactocerebrosidase; settings: 145M-Twi-hGALC-G270D cells (Twitcher mouse brain line with human GALC G270D), HMU-beta-Gal fluorescence, 48 h; series mostly up to 57.5 µM; activation: at the top concentration; further: 0% is about no effect; nearly all actives have a fitted effect of over 65% in size
Sequence of UniProt P54803 (P54803 whole entry, looked up): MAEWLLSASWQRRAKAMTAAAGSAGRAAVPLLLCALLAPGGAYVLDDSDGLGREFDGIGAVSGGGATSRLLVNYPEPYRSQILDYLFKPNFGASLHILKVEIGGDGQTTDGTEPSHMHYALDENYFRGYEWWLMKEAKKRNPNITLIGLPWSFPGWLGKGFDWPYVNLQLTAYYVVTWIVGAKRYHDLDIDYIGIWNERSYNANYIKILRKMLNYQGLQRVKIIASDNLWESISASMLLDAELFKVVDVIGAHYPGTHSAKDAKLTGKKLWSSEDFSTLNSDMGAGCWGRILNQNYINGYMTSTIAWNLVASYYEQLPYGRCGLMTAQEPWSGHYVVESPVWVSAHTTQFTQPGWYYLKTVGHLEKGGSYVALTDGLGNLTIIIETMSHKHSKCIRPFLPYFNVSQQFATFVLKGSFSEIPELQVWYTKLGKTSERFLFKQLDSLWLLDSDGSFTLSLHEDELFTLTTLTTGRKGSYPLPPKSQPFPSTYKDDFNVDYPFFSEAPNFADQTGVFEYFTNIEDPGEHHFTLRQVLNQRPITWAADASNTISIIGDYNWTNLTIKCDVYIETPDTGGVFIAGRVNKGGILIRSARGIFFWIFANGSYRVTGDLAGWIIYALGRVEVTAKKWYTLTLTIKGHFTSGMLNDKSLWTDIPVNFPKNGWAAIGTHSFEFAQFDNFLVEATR
Outline: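 Mutant human GALC (G270D), stably expressed in a Twitcher mouse brain cell line lacking endogenous GALC, is measured in live-treated cells via 6-hexadecanoylamino-4-methylumbelliferyl-β-galactoside hydrolysis (0.1 mM final, pH 5.2) with fluorescent detection.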

SMILES | activation
O=C(Cn1ncc2c3ccccc3n(Cc3ccc(Cl)cc3)c2c1=O)NCc1ccccn1 | inactive: -8.06%
NC(=O)c1ccccc1NC(=O)c1ccc(-c2ccc(Br)cc2)o1 | inactive: -21%
COC(=O)c1cc(S(=O)(=O)N2CCN(c3cccc(C)c3)C(C)C2)cn1C (stereo not given) | inactive: -13.2%
O=C(CSc1nnc(-c2ccccc2)o1)c1cccc([N+](=O)[O-])c1 | inactive: -14.7%
CCN(CC)CCCNC(=O)c1ccc(-c2nc(CN3CCc4ccccc43)c(C)o2)cc1 | inactive: -14.7%
CCOC(=O)c1c(C)[nH]c(CCC(=O)NCc2ccc(CC)cc2)c1C | inactive: -8.24%
CC(=O)c1cccc(NC(=O)Cn2nc(C)n3cccc3c2=O)c1 | inactive: 5.89%
CCN(CC)CCCNC(=O)c1ccc2c(=O)n(CCc3ccccc3)c(=O)[nH]c2c1 | inactive: -11.1%
CCOc1ccc(C(=O)Nc2ccc3nc(SCCOc4ccccc4)sc3c2)cc1 | inactive: -12.8%
CCc1ccc(-n2cnc3cc(C(=O)NCc4ccc(C)cc4)ccc32)cc1 | inactive: -21.7%
COc1ccc(S(=O)(=O)NCCc2csc(-c3ccc(F)cc3)n2)cc1 | inactive: -6.37%
Cc1cc(C)cc(OCC(=O)Nc2ccc(S(=O)(=O)Nc3onc(C)c3C)cc2)c1 | inactive: 7.66%
O=C(CSC1=Nc2ccccc2C2=NC(Cc3ccccc3)C(=O)N12)Nc1ccccc1F (stereo not given) | inactive: -4.74%
CCOC(=O)NC1(C(F)(F)F)NC(=O)N(c2ccc(C)c(C)c2)C1=O (stereo not given) | inactive: 15%
CCc1ccc(-n2nc(C)c3c(C(=O)Nc4cc(OC)cc(OC)c4)cc(C)nc32)cc1 | inactive: -9.83%
CCOc1ccc(-c2nc(SCC(=O)NCCOC)c(-c3ccc(OC)c(OC)c3)[nH]2)cc1 | inactive: -21.5%
Cc1cc(C)cc(NC(=O)CSc2nc(-c3cccc(Cl)c3)nc3c2Cc2c(CO)cnc(C)c2O3)c1 | inactive: -6.04%
CSc1nc2sc3c(c2c(=O)n1-c1ccc(F)c(Cl)c1)CCN(C(C)=O)C3 | inactive: -11.6%
Cc1ccccc1NC(=O)CSC1=Nc2ccccc2C2=NC(CCC(=O)NCc3ccccc3)C(=O)N12 (stereo not given) | inactive: -19.2%
Cc1nn(CC(=O)NCc2ccccc2Cl)c(=O)c2nn(-c3ccccc3)c(C)c12 | inactive: -4.02%

SMILES | activation
Cc1nc(CC(=O)Nc2ccc(N(C)C)cc2)cs1 | inactive: -6.46%
COc1ccc(-n2nc(C(=O)Nc3cccc(C(F)(F)F)c3)c3c4ccccc4n(C)c3c2=O)cc1 | inactive: -12.6%
CCCCn1cc(S(=O)(=O)c2ccc(OC)cc2)c(=O)c2cc(F)c(N3CCCC3)cc21 | inactive: -16.1%
Cc1ccc(-c2nc(C)c(CCNS(=O)(=O)c3ccccc3F)s2)cc1 | inactive: -39.4%
Cc1cc(C)cc(N2C(=O)N(CC(=O)c3ccc(Br)cc3)c3ccccc3S2(=O)=O)c1 | inactive: -9.5%
O=S(=O)(NCc1cccc(Br)c1)c1ccc(-c2cc(C(F)(F)F)on2)s1 | inactive: -14.1%
COc1ccccc1CNC(=O)CN1C(=O)COc2ccc(S(=O)(=O)N3CCCCC3)cc21 | inactive: -8.66%
CCN(CC)C(=O)c1sc2c(c1C)c(=O)n(-c1ccc(Cl)c(Cl)c1)c(=O)n2Cc1cc(=O)n2c(C)cccc2n1 | inactive: -5.78%
COc1ccc(C(=O)Nc2ccc3nc(SCC(=O)N4CCCc5ccccc54)sc3c2)cc1 | inactive: 0.11%
COC(=O)c1sccc1S(=O)(=O)N(CC(=O)NCc1ccc(C)cc1)c1ccc(Cl)cc1 | inactive: 4.71%
Cc1cccc(NC(=O)N2CCC(CN3CCc4ccccc4C3)CC2)c1C | inactive: -7.89%
CN1C(=O)C(C)(C)c2cc(S(=O)(=O)NCc3ccc(C(=O)Nc4ccc(Cl)cc4)cc3)ccc21 | inactive: -7.21%
CCOc1ccc(NC(=O)Cn2cc(C(=O)c3ccc(C)c(C)c3)c(=O)c3cc4c(cc32)OCCO4)cc1 | inactive: -0.195%
CCOC(=O)c1cccc(NC(=O)CN2C(=O)CC(C)(C)Sc3ccccc32)c1 | inactive: -8.23%
Cc1ccc(C(=O)Nc2c(C(=O)NCc3ccc(Cl)cc3)sc3nc(C)cc(C)c23)cc1 | inactive: -8.7%
Cc1ccc(Nc2c(-c3ccc(N4CCOCC4)cc3)nc3ncccn23)cc1 | inactive: -19.9%
Cc1cccc(C)c1OCc1nc2c3cnn(-c4cccc(F)c4)c3ncn2n1 | inactive: -14.9%
COc1ccc(CCNC(=O)CCCn2c(=O)c3ccccc3n(Cc3ccccc3C)c2=O)cc1OC | inactive: -2.63%
Cc1ccc(-n2ncc(C(=O)NCCN3CCc4ccccc4C3)c2C2CCN(C(=O)OC(C)(C)C)CC2)cc1 | inactive: -5.16%
CCOC(=O)c1cc(S(=O)(=O)N2CCN(c3ccc(OC)cc3)CC2)[nH]n1 | inactive: -1.41%

SMILES | activation
Cc1ccc(CNC(=O)c2c3c(nc4ccccc24)C(=O)N(C2CCCCC2)C3)cc1 | inactive: -20.1%
COc1cc(C2CC(=O)c3c([nH]c(C(=O)OC4CCCCC4)c3C)C2)cc(OC)c1OC (stereo not given) | inactive: -16.7%
CCN1CCN(c2cc3c(cc2F)c(=O)c(C(=O)O)cn3C2CC2)CC1 | inactive: -0.764%
CCCN(C(=O)CCc1nc(-c2ccccc2F)no1)c1ccc(CC)cc1 | inactive: -12.2%
COc1ccc(NC(=O)c2cc3c(=O)[nH]c4ccccc4c3n2C)cc1Cl | inactive: -3.23%
Cc1ccc(C)c(N2CCN(C(=O)c3ccc(CS(=O)(=O)c4ccc(Br)cc4)o3)CC2)c1 | inactive: -9.18%
CCOc1cc2[nH]c(=O)n(Cc3ccc(C(=O)NCCN(CC)CC)cc3)c(=O)c2cc1OCC | inactive: -12.9%
Cc1ccccc1NC(=O)c1sc2nc3c(cc2c1N)CCCC3 | inactive: -3.75%
COc1ccc(CC(=O)NCc2nc3cccnc3n2Cc2ccc(F)cc2)cc1OC | inactive: -9.41%
COc1ccc(Cl)cc1NC(=O)CSc1nccn1Cc1ccco1 | inactive: -12.7%
CCc1ccc(CN2C(=O)c3ccccc3C2C(=O)NCCc2ccc(OC)c(OC)c2)cc1 (stereo not given) | inactive: -11.3%
CN(CC(=O)Nc1cccc(C(F)(F)F)c1)S(=O)(=O)c1ccc2[nH]c3c(c2c1)CCCC3 | inactive: -12.7%
COc1cccc(NC(=O)CSc2nc3ccccc3nc2N2CCOCC2)c1 | inactive: -19%
Cc1csc2nc(COC(=O)c3ccccc3NC(=O)c3ccc(F)cc3)cc(=O)n12 | inactive: -1.77%
CCC(Sc1nncn2c1cc1occc12)C(=O)Nc1ccc(C)c(Cl)c1 (stereo not given) | inactive: -8.92%
Cc1ccc(C(=O)NCC(c2cccs2)S(=O)(=O)c2cccs2)cc1 (stereo not given) | inactive: -7.33%
CCN(C(=O)CSc1nc2ccccc2n1Cc1cc(C)ccc1C)c1ccccc1 | inactive: -42.3%
Cc1c2cnn(CC(=O)NC(C)C)c(=O)c2c(C)n1Cc1ccccc1Cl | inactive: -8.56%
COc1ccccc1/C=C/c1nc(C#N)c(N(C)C)o1 | inactive: -20.9%
CCOC(=O)N1CCc2c(sc3c2c(=O)n(-c2ccc(CC)cc2)c(=O)n3CC(=O)c2ccc(F)cc2)C1 | inactive: -3.25%
